In PubChem BioAssay AID1845203 (Molecular Pharmacology Branch, DTP, NCI, 2023) one finds viability, T/C data, which are given here for 1 compound.

Molecules are shown by their SMILES. For part of its entries the source gives two or more results. This is not the full list of results. There may be further records. The records of an entry repeat one measurement (runs, samples, wells, individuals or studies). Marks such as (2×) count equal records among those shown.

The test deals with G-401 tumor spheroids, viability % test/control. The experiment in a line: Anticancer human tumor G-401 cell line growth inhibition.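 Further: spheroids exposed to compound for 7 days; 100% = DMSO vehicle-treated spheroids.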 As to conditions: compound 94.9 pM; stronger effect = lower value; spheroids with HUVEC and MSC. An excerpt: Multicellular complex tumor spheroid response to DNA repair inhibitors in combination with DNA-damaging drugs
This study explores the anticancer activities of DNA-damaging drugs and inhibitors of DNA damage repair, both as single agents and in combinations. Complex tumor spheroids comprised of malignant cells, endothelial cells and mesenchymal stem cells served as an in vitro model for human solid tumors. This model system incorporates physiologically relevant features and patient-derived or established malignant cell lines with clinically relevant genetic alterations from many tumor types. Twenty-six patient-derived or established malignant cell lines were evaluated representing sarcoma, melanoma, small cell lung cancer (SCLC), non-small cell lung cancer (NSCLC), as well as bladder, ovarian and pancreatic cancers. The concentration ranges selected for each drug and investigational agent were based upon clinically achievable concentrations if the clinical Cmax of the agent was known.
Compounds. […] If the clinical Cmax for an agent had not been determined, the highest concentration tested was 10 microM. […]

On to `COc1cc2c(cc1O)CCNC21CSC2c3c(OC(C)=O)c(C)c4c(c3C(COC1=O)N1C(O)C3Cc5cc(C)c(OC)c(O)c5C(C21)N3C)OCO4` (stereo unspecified), for which the viability, T/C (commonly the ratio of treated to control) is 98.1, 95.7 (2×), 93, 94.8, 91.4, 80.8, 64.2, 88.6, 87.7%.
